The whole screen tested about 220,000 compounds, of which about 16,000 (7.3%) were called active. Inconclusive means that the source gave no clear call. Such entries were picked first, then a sample of the others. The call rests on the fitted dose curve; in most records, active means well fitted inhibition curve with a large enough effect (not every such curve was filed as active); inconclusive means small, poorly fitted or top-dose-only effect, or another doubt; inactive means no such curve, though single readings can be large or run the other way. Potencies of inconclusive entries are left out as doubtful fits.
Biological target: Aldehyde dehydrogenase 1A1 (Homo sapiens) (UniProt P00352)
Assay: qHTS Assay for Inhibitors of Aldehyde Dehydrogenase 1 (ALDH1A1);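 on activity, negative = inhibition: plate controls were no enzyme wells and a reference inhibitor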
Conditions: Purified ALDH1A1, NADH fluorescence, propionaldehyde substrate; series mostly up to 75.3 µM; activity, negative = inhibition: at the top concentration
Potency means the concentration at half of the fitted maximal effect; tags describe the fitted curve by direction and shape.

Sequence of UniProt P00352 (P00352 whole entry, looked up): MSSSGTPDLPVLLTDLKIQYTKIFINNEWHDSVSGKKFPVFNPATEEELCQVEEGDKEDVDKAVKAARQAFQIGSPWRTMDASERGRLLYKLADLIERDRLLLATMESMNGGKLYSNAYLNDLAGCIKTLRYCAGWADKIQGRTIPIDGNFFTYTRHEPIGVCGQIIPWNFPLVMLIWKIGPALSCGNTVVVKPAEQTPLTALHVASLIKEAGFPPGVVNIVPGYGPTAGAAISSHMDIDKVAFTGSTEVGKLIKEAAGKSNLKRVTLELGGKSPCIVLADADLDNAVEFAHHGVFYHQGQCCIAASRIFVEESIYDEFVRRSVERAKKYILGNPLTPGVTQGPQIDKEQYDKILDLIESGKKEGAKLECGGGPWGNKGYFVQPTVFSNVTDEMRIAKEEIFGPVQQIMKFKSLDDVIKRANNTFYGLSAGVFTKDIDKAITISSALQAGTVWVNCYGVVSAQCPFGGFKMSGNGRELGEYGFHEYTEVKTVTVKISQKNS

Row | Structure (SMILES) | Potency | activity, negative = inhibition
1 | Cc1nc(C)c(-c2nnc(-c3ccc(C(C)(C)C)cc3)o2)cc1C(=O)NN | inconclusive [inhibitor, partial curve] | –
2 | CC(=O)c1ccc(NC(=O)c2c(C)nn(-c3ccccc3)c2Cl)cc1 | inconclusive [inhibitor, single point] | –
3 | Nc1nnc(N2CCCCC2)s1 | active: 25.1 µM | –
4 | CC1CC2=C(CC1/C=N/NC(N)=S)C(C)(C)CCC2 (configuration not stated) | inconclusive [inhibitor, partial curve] | –
5 | CN(C)S(=O)(=O)c1ccc(NC(=O)CCNC(=O)c2ccc([N+](=O)[O-])cc2)cc1 | active: 10 µM | –
6 | O=C(c1nc2ccccc2s1)N1CCSCC1 | – | inactive: -0.579%
7 | O=C(CSc1nnc(-c2c[nH]c3ccccc23)n1CC1CCCO1)Nc1ccc2c(c1)OCCO2 (configuration not stated) | inconclusive [inhibitor, single point] | –
8 | Cc1ccc(Nc2nc(N)nc(CN3CCN(Cc4ccc5c(c4)OCO5)CC3)n2)cc1C | active: 7.94 µM | –
9 | O=C(COC(=O)c1cc([N+](=O)[O-])ccc1NCCO)Nc1ccc2c(c1)OCO2 | inconclusive [inhibitor, single point] | –
10 | CCc1ccc2[nH]c(=O)c(CN(Cc3ccc(OC)cc3)Cc3nnnn3CCOC)cc2c1 | inconclusive [inhibitor, partial curve] | –
11 | Cc1nn2c(CN(C(=O)COc3ccccc3)c3ccccc3)nnc2c2ccccc12 | active: 11.2 µM | –
12 | O=Cc1ccc2cccnc2n1 | inconclusive [inhibitor, single point] | –
13 | O=C(c1cccc(C(F)(F)F)c1)N1CCCCCC1 | – | inactive: 11.8%
14 | COc1ccc(OCCn2cncn2)cc1 | inconclusive [inhibitor, single point] | –
15 | CCOC(=O)C1=C(C)N(CC)C(=S)NC1c1ccc(Cl)cc1 (configuration not stated) | inconclusive [inhibitor, single point] | –
16 | CNS(=O)(=O)c1cccc(C(=O)OC2CCCCC2=O)c1 (configuration not stated) | inconclusive [inhibitor, single point] | –
17 | Cc1nn(-c2ccccc2)c(C)c1C(=O)OCC(=O)N1c2ccccc2NC(=O)C1(C)C | inconclusive [inhibitor, single point] | –
18 | CCCNC(=O)CN(C)S(=O)(=O)c1c(C)cc(C)cc1C | – | inactive: 9.27%
19 | COc1cc(/C=N/NC(=O)CSc2n[nH]c(=O)[nH]c2=O)cc(OC)c1O | inconclusive [inhibitor, single point] | –
20 | COc1ncc2nc(-c3ccccc3)c(=O)n(CCc3ccccc3)c2n1 | inconclusive [inhibitor, single point] | –
21 | Cc1ccc(/C=C/C(=O)Nc2ccc(Oc3ccccc3)cc2)o1 | active: 23.8 µM | –
22 | CCc1ccc(NC(=O)N(CCN2CCOCC2)Cc2ccc3c(c2)CCCN3CC)cc1 | inconclusive [inhibitor, partial curve] | –
23 | O=C(CNC(=O)c1ccc(Oc2ccccc2)cc1)OC1CCCCC1=O (configuration not stated) | active: 22.4 µM | –
24 | Fc1ccc(NC(=S)N/N=C/c2ccc(F)c(F)c2)cc1 | – | inactive: 9.16%

Row | Structure (SMILES) | Potency | activity, negative = inhibition
25 | Cn1c(=NC(=O)c2cccc([N+](=O)[O-])c2)sc2ccccc21 | inconclusive [inhibitor, single point] | –
26 | CN(C)c1ccc(C(=O)N2CCCC2)cc1 | inconclusive [inhibitor, partial curve, poor fit] | –
27 | CC1=NN(c2ccccc2)C(=O)/C1=C\c1c(C)[nH]n(-c2ccccc2)c1=O | – | inactive: -1.75%
28 | O=S(=O)(NCc1ccncc1)c1ccc(Br)s1 | – | inactive: 5.08%
29 | Cc1ccc(CNC(=O)C2CCCN(c3nc4ccsc4c(=O)s3)C2)cc1 (configuration not stated) | inconclusive [inhibitor, single point] | –
30 | CCO[C@@H]1OC(C(=O)Nc2ccccc2)=C[C@H](C2CC2)[C@H]1CCCO | – | inactive: -15.9%
31 | Cc1nc2ccccn2c1-c1csc(NCc2ccco2)n1 | active: 22.4 µM | –
32 | COc1ccc(-c2cc(=Nc3ccc(C(=O)O)cc3)c3cc(C)ccc3o2)cc1 | inconclusive [inhibitor, partial curve] | –
33 | COc1cc(/C=N/OCC(=O)NC2CCCCC2)ccc1OCc1ccccc1 | active: 22.4 µM | –
34 | CCCc1cc(N2CCCC(C(=O)NCC)C2)n2ncnc2n1 (configuration not stated) | – | inactive: 11.7%
35 | O=C(CCc1ccccc1)N1CCN(c2ccccn2)CC1 | inconclusive [inhibitor, partial curve] | –
36 | COCCNc1nc(-c2cccc(OC)c2)nc2ccccc12 | – | inactive: 9.7%
37 | O=C(CCCN1C(=O)c2cccc3cccc(c23)C1=O)N1CCN(c2ccccc2O)CC1 | inconclusive [inhibitor, single point] | –
38 | COc1cccc(/C=C/C(=O)OCC(=O)Nc2ccccc2Sc2ccccc2)c1 | inconclusive [inhibitor, single point] | –
39 | Cc1ccc(-n2nnnc2SCC(=O)NC2CCCc3ccccc32)c(C)c1 (configuration not stated) | inconclusive [inhibitor, partial curve] | –
40 | Cc1noc(C)c1-c1cc(N(C)Cc2ccco2)ncn1 | inconclusive [inhibitor, single point] | –
41 | O=C(COC(=O)c1ccc(O)cc1)NCc1ccc2c(c1)OCO2 | – | inactive: -4.35%
42 | Cc1cc(C(=O)Cn2cnc3cc([N+](=O)[O-])ccc3c2=O)c(C)n1CC1CCCO1 (configuration not stated) | inconclusive [inhibitor, single point] | –
43 | COc1cc2c(cc1OC)C1(Nc3c-2c(C)nn3-c2ccccc2)C(=O)Nc2ccccc21 (configuration not stated) | inconclusive [inhibitor, single point] | –
44 | COc1ccc(CN(Cc2ccc(OC)cc2)C(=O)c2cccs2)cc1 | active: 8.91 µM | –
45 | CCN(CC)S(=O)(=O)c1cccc(NC(=O)C2SC(=Nc3ccc(C)cc3C)C(C(=O)NCC3CCCO3)=C2N)c1 (configuration not stated) | – | inactive: -6.01%
46 | CCOC(=O)c1nn(-c2cccc(OC)c2)c(-c2ccccc2)c1C(=O)c1ccccc1 | inconclusive [inhibitor, single point] | –
47 | CN(CCOc1ccccc1)CC(=O)Nc1cccc(Br)c1 | inconclusive [inhibitor, single point] | –
48 | COC(=O)c1ccc(-n2nnnc2SCc2ccccc2OC)cc1 | active: 14.1 µM | –

Row | Structure (SMILES) | Potency | activity, negative = inhibition
49 | CC(=O)c1ccccn1 | inconclusive [inhibitor, partial curve, poor fit] | –
50 | Cc1ccc(C)c(NC(=S)N2CCC(c3nc4ccccc4s3)CC2)c1 | inconclusive [inhibitor, single point] | –
51 | COc1ccc(-c2nc3cnc(OC)nc3n(Cc3cccc(OC)c3)c2=O)cc1 | inconclusive [inhibitor, partial curve, poor fit] | –
52 | Cc1nc2c(c(-c3ccccc3)c1C#N)C(=O)c1ccccc1-2 | inconclusive [inhibitor, single point] | –
53 | Cc1cc(=O)oc2c(C(=O)c3ccccc3)c(OCC(N)=O)ccc12 | inconclusive [inhibitor, single point] | –
54 | O=C(CCC(=O)N1CCN(c2ccccn2)CC1)Nc1nnc(C2CCCCC2)s1 | inconclusive [inhibitor, partial curve] | –
55 | CCn1ncc(Br)c1C(=O)Nc1ccc2c(c1)OCCO2 | – | inactive: -1.51%
56 | CCn1cc(-c2cc(C(=O)O)c3ccccc3n2)cn1 | inconclusive [inhibitor, partial curve] | –
57 | COc1ccc2c(c1)C=C(C(=O)OCc1cccnc1)CO2 | active: 8.91 µM | –
58 | COc1ccc(OC)c(-c2cc(C(=O)Nc3c(C)nn(Cc4ccccc4C)c3C)no2)c1 | inconclusive [inhibitor, single point] | –
59 | NC(=O)c1nsc(C(=O)N(c2ccc(Cl)cc2)C(C(=O)NCC2CCCO2)c2cccs2)c1N (configuration not stated) | inconclusive [inhibitor, partial curve] | –
60 | CCOCc1[nH]c(=S)[nH]c(=O)c1Cc1ccc(OCC(C)C)cc1 | inconclusive [inhibitor, single point] | –
61 | Cc1cc(S(=O)(=O)Nc2cccc(O)c2)c(C)s1 | inconclusive [inhibitor, single point] | –
62 | O=C(O)c1cc2nc(-c3ccc(F)cc3)cc(C(F)(F)F)n2n1 | inconclusive [inhibitor, single point] | –
63 | C(=N\NC1=Nc2cccc3cccc1c23)/c1ccccc1 | – | inactive: -1.49%
64 | COc1ccc(CC(=O)Nn2c(-c3ccccc3)nc3ccccc3c2=O)cc1 | active: 1 µM | –
65 | Cc1ccc(S(=O)(=O)NCC(=O)N(CC(=O)NCC2CCCO2)Cc2ccco2)cc1 (configuration not stated) | active: 17.8 µM | –
66 | CC(=O)N1CCCc2cc(S(=O)(=O)NC(C(=O)NC(C)c3ccccc3)C(C)C)ccc21 (configuration not stated) | active: 3.16 µM | –
67 | C[n+]1ccc(C(=O)N/N=C/c2ccco2)cc1 | – | inactive: -2%
68 | Cc1cc(N2CCCCC2)nc(NCc2ccccc2)n1 | inconclusive [inhibitor, single point] | –
69 | COc1cccc(/C(O)=C2/C(=O)C(=O)N(CCN3CCOCC3)C2c2cccs2)c1 (configuration not stated) | inconclusive [inhibitor, single point] | –
70 | Cc1c(O)c(CN2CCCCC2)cc2c1oc(=O)c1ccccc12 | inconclusive [inhibitor, partial curve] | –
71 | CS(=O)(=O)N1CCC[C@@]2(CCN(C(=O)Nc3ccccc3)C2)C1 | – | inactive: 26%
72 | O=C(CSc1ncn(-c2ccccc2)n1)N1CCc2ccccc21 | inconclusive [inhibitor, single point] | –

Source: PubChem BioAssay AID1030 (National Center for Advancing Translational Sciences (NCATS), 2008)
